Reference: PMC4823829
Like-named read-outs stand apart in the source and are kept apart here. These are yes or no findings as the source states them, for the method shown. For part of these data: Binding seen in cells or lysates may run through a third protein. Some results given as binding are weak or reduced against the parent protein; the word gives no strength. For part of these data: Tags and fused reporters may be left off the sequences shown. Values belong to the molecule of their own block, whether it stands above or below them.

Chains of the proteins cited; added tags and fusions are not shown.
UniProt P05804: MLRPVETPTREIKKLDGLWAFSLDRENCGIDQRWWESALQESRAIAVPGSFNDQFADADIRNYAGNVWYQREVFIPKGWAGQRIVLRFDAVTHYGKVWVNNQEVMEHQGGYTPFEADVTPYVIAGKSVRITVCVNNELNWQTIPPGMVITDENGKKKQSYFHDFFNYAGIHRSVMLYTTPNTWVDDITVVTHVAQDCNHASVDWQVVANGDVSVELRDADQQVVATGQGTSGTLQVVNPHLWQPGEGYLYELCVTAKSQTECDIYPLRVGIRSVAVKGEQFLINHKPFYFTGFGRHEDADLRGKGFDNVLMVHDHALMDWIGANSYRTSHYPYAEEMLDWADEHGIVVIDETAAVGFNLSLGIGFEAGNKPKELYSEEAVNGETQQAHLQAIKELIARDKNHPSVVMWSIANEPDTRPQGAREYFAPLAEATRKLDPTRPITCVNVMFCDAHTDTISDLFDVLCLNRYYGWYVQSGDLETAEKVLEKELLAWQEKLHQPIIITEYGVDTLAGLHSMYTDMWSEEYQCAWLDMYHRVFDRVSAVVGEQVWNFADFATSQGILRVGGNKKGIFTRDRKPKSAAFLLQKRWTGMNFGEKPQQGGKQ
UniProt Q9FHW7: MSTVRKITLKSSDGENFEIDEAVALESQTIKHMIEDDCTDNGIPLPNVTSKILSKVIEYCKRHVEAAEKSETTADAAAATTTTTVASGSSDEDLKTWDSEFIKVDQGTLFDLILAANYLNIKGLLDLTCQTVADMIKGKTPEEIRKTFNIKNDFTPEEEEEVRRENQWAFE
UniProt Q39255: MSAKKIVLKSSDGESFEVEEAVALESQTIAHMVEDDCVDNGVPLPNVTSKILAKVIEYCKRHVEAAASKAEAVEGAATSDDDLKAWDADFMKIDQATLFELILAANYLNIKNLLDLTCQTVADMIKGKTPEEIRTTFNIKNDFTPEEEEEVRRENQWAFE
UniProt Q94AH6: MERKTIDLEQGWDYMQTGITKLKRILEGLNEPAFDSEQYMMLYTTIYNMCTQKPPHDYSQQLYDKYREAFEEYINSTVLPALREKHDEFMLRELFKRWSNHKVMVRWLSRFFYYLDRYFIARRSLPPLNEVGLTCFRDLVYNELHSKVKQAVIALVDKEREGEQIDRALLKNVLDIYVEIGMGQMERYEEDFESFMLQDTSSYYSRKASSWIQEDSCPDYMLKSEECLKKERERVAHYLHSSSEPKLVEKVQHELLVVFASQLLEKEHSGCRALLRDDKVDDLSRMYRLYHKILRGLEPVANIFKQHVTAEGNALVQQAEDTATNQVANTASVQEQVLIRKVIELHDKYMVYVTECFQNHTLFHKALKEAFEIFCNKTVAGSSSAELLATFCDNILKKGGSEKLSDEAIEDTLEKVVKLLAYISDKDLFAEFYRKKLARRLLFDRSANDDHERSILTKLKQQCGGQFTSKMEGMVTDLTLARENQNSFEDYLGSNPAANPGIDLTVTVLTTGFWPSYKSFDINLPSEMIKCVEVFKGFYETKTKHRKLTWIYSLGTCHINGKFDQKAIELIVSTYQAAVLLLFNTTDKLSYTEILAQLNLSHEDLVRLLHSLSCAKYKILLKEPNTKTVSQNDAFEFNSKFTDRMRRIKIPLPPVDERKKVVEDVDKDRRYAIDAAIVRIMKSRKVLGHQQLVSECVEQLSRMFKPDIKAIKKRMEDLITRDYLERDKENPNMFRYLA
UniProt Q7XA73: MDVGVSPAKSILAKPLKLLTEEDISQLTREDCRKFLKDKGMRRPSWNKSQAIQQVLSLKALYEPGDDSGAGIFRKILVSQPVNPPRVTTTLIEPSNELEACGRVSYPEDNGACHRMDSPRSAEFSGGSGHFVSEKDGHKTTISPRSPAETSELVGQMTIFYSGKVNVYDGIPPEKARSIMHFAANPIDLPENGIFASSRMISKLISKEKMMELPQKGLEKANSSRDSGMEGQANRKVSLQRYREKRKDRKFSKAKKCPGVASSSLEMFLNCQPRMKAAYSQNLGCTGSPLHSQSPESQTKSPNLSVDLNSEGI
UniProt Q8GY55: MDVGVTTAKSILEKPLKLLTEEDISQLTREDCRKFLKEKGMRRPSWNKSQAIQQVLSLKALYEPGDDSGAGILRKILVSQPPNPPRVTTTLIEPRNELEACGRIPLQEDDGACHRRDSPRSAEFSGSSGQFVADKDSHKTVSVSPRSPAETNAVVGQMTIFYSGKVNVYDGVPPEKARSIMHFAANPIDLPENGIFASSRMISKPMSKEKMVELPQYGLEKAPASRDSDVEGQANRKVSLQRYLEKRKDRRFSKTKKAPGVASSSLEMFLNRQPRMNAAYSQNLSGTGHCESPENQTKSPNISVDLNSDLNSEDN

Assays:
[1] = target: T1, SAP as two-hybrid bait (pGBKT7) (Arabidopsis thaliana) (UniProt Q9FKH1); assay: two-hybrid; Matchmaker Gold; SAP and domain derivatives as bait in pGBKT7, ASK1, ASK2 and DA1 as prey in pGADT7; yeast strain Y2HGold; selective medium SD/-Ade/-His/-Leu/-Trp
T1 sequence: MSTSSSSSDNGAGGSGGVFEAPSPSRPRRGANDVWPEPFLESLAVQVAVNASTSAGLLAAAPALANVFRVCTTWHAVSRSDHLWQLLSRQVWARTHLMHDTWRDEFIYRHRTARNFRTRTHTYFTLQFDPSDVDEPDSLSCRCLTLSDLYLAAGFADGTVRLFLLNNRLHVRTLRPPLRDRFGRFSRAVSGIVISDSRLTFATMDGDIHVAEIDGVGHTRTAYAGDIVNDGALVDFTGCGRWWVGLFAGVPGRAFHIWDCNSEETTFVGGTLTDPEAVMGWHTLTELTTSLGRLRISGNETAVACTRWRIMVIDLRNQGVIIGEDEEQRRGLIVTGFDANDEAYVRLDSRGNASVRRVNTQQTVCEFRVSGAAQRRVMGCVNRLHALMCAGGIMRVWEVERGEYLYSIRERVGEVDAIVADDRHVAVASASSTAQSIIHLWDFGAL

[2] = target: GST-GUS (negative control) (UniProt P05804); assay: pull-down; bacterial lysates with ~30 μg GST-SAP and ~30 μg His-ASK1 or His-ASK2 combined; glutathione sepharose, 4 °C 1 h; washed five times with TGH buffer (50 mM HEPES pH 7.5, 150 mM NaCl, 1% Triton X-100); anti-His blot
[3] = target: T2, GST-SAP (Arabidopsis thaliana) (UniProt Q9FKH1); assay: as above
T2 sequence: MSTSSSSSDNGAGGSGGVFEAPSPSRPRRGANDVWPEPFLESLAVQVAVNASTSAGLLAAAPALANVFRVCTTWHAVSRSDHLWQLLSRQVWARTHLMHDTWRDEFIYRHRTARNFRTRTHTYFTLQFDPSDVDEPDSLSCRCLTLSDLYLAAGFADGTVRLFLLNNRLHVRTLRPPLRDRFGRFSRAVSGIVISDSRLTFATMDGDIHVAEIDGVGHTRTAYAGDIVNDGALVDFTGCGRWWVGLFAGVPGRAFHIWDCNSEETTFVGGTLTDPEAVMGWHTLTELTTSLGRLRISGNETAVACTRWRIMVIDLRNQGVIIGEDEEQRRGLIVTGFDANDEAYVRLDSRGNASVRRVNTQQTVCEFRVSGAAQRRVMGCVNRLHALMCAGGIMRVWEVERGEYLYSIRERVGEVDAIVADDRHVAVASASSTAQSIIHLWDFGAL

[4] = target: T3, GFP-SAP expressed transiently in N. benthamiana leaves (Arabidopsis thaliana) (UniProt Q9FKH1); assay: co-IP; transient co-expression in N. benthamiana leaves; total proteins with GFP-Trap-A 1 h at 4 °C; anti-GFP and anti-Myc blots
T3 sequence: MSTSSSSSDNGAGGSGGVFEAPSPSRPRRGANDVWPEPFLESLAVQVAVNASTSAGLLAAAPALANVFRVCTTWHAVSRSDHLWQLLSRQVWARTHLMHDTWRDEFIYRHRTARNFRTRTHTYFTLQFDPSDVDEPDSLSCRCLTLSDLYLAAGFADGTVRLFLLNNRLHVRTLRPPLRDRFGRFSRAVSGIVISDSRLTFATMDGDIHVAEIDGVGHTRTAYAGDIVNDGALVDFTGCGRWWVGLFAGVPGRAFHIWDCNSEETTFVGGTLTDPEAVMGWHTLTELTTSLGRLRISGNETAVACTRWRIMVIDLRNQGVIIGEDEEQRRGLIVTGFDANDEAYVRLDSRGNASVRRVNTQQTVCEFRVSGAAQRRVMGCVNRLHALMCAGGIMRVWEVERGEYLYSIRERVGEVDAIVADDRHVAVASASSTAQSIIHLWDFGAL

[5] = target: T4, GFP-SAP (STERILE APETALA) from 35S:GFP-SAP transgenic Arabidopsis plants (Arabidopsis thaliana) (UniProt Q9FKH1); assay: co-IP; total proteins of leaves of transgenic Arabidopsis plants (35S:GFP-SAP or 35S:GFP crossed with 35S:Myc-PPD1 or 35S:Myc-PPD2) with GFP-Trap-A agarose 1 h at 4 °C; anti-GFP and anti-Myc blots
T4 sequence: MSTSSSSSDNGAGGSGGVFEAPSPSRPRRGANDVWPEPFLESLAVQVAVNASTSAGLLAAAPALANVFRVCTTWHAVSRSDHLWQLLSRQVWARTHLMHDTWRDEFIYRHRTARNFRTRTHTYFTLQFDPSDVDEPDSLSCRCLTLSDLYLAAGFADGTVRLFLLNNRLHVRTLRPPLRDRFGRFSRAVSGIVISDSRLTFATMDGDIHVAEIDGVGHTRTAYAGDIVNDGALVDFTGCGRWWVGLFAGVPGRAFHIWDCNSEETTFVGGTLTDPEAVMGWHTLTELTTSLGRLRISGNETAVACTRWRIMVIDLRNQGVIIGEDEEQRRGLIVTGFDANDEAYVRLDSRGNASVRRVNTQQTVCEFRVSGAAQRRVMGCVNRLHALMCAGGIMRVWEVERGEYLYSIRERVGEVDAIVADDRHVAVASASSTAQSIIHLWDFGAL

[6] = target: T5, nYFP-SAP (Arabidopsis thaliana) (UniProt Q9FKH1); assay: split reporter; BiFC: nYFP and cYFP fusions co-infiltrated into N. benthamiana leaves, observed after 50 h by confocal microscopy
T5 sequence: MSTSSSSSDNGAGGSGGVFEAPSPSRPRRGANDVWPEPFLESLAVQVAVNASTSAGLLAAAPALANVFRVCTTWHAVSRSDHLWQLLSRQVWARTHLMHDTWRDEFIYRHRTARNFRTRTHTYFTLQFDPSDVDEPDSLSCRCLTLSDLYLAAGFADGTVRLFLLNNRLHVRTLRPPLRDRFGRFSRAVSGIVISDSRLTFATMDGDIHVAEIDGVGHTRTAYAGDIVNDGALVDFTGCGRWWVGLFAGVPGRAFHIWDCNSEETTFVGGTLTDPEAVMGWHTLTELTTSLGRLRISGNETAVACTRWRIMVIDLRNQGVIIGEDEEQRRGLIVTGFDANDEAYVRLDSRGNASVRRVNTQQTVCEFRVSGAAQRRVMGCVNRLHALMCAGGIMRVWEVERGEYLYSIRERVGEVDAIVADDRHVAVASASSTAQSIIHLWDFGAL

[7] = target: T1, SAP as two-hybrid bait (pGBKT7) (Arabidopsis thaliana); assay: two-hybrid; Matchmaker Gold; SAP and domain derivatives as bait in pGBKT7, ASK1, ASK2 and DA1 as prey in pGADT7; yeast strain Y2HGold; selective medium SD/-Ade/-His/-Leu/-Trp; remark: listed apart in the source
[8] = target: T6, MBP-SAP (Arabidopsis thaliana) (UniProt Q9FKH1); assay: pull-down; bacterial lysates with ~30 μg MBP-SAP and ~20 μg DA1-His combined; amylase resin (New England Biolabs), 4 °C 1 h; washed five times with TGH buffer; anti-MBP and anti-His blots
T6 sequence: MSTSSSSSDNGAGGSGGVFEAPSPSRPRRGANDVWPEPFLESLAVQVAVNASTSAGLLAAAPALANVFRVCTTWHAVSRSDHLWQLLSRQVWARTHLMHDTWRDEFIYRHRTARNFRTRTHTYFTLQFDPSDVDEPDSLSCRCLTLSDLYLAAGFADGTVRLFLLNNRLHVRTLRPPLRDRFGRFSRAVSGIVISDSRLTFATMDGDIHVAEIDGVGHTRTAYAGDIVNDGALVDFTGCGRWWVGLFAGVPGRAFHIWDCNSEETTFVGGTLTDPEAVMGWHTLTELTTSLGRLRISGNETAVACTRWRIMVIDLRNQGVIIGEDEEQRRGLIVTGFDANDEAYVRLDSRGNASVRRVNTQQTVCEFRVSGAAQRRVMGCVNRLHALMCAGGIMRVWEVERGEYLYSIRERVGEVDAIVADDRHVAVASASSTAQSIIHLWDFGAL

[9] = target: GFP-ASK2 (Arabidopsis thaliana) (UniProt Q9FHW7); assay: co-IP; transient co-expression in N. benthamiana leaves; total proteins with GFP-Trap-A 1 h at 4 °C; anti-GFP and anti-Myc blots
[10] = target: GFP-ASK1 (Arabidopsis thaliana) (UniProt Q39255); assay: as above

binding [2]: no binding
binding [3]: binds
Molecule: His-ASK1 (from UniProt Q39255 1-160)

binding [4]: binds
Molecule: Myc-CUL1 (from UniProt Q94AH6 1-738)

binding [5]: binds
Molecule: Myc-PPD1 (from UniProt Q7XA73 1-313)

binding [6]: binds
Molecule: cYFP-PPD1 (from UniProt Q7XA73 1-313)

binding [6]: binds
Molecule: cYFP-PPD2 (from UniProt Q8GY55 1-315)

binding [7]: no binding
B1: DA1-AD (two-hybrid prey, pGADT7) (protein, UniProt P0C7Q8 1-532)
chain: MGWFNKIFKGSNQRLRVGNNKHNHNVYYDNYPTASHDDEPSAADTDADNDEPHHTQEPSTSEDNTSNDQENEDIDRAIALSLLEENQEQTSISGKYSMPVDEDEQLARALQESMVVGNSPRHKSGSTYDNGNAYGAGDLYGNGHMYGGGNVYANGDIYYPRPITFQMDFRICAGCNMEIGHGRFLNCLNSLWHPECFRCYGCSQPISEYEFSTSGNYPFHKACYRERYHPKCDVCSHFIPTNHAGLIEYRAHPFWVQKYCPSHEHDATPRCCSCERMEPRNTRYVELNDGRKLCLECLDSAVMDTMQCQPLYLQIQNFYEGLNMKVEQEVPLLLVERQALNEAREGEKNGHYHMPETRGLCLSEEQTVSTVRKRSKHGTGKWAGNITEPYKLTRQCEVTAILILFGLPRLLTGSILAHEMMHAWMRLKGFRTLSQDVEEGICQVMAHKWLDAELAAGSTNSNAASSSSSSQGLKKGPRSQYERKLGEFFKHQIESDASPVYGDGFRAGRLAVHKYGLRKTLEHIQMTGRFPV

Continued, molecule first:

Molecule: ASK1-AD (two-hybrid prey, pGADT7) (from UniProt Q39255 1-160)
binding [1]: binds

Molecule: Myc-PPD2 (from UniProt Q8GY55 1-315)
binding [5]: binds

B2: DA1-His (protein, UniProt P0C7Q8 1-532)
chain: MGWFNKIFKGSNQRLRVGNNKHNHNVYYDNYPTASHDDEPSAADTDADNDEPHHTQEPSTSEDNTSNDQENEDIDRAIALSLLEENQEQTSISGKYSMPVDEDEQLARALQESMVVGNSPRHKSGSTYDNGNAYGAGDLYGNGHMYGGGNVYANGDIYYPRPITFQMDFRICAGCNMEIGHGRFLNCLNSLWHPECFRCYGCSQPISEYEFSTSGNYPFHKACYRERYHPKCDVCSHFIPTNHAGLIEYRAHPFWVQKYCPSHEHDATPRCCSCERMEPRNTRYVELNDGRKLCLECLDSAVMDTMQCQPLYLQIQNFYEGLNMKVEQEVPLLLVERQALNEAREGEKNGHYHMPETRGLCLSEEQTVSTVRKRSKHGTGKWAGNITEPYKLTRQCEVTAILILFGLPRLLTGSILAHEMMHAWMRLKGFRTLSQDVEEGICQVMAHKWLDAELAAGSTNSNAASSSSSSQGLKKGPRSQYERKLGEFFKHQIESDASPVYGDGFRAGRLAVHKYGLRKTLEHIQMTGRFPV
binding [8]: no binding

B3: Myc-SAP (protein, UniProt Q9FKH1 1-446)
chain: MSTSSSSSDNGAGGSGGVFEAPSPSRPRRGANDVWPEPFLESLAVQVAVNASTSAGLLAAAPALANVFRVCTTWHAVSRSDHLWQLLSRQVWARTHLMHDTWRDEFIYRHRTARNFRTRTHTYFTLQFDPSDVDEPDSLSCRCLTLSDLYLAAGFADGTVRLFLLNNRLHVRTLRPPLRDRFGRFSRAVSGIVISDSRLTFATMDGDIHVAEIDGVGHTRTAYAGDIVNDGALVDFTGCGRWWVGLFAGVPGRAFHIWDCNSEETTFVGGTLTDPEAVMGWHTLTELTTSLGRLRISGNETAVACTRWRIMVIDLRNQGVIIGEDEEQRRGLIVTGFDANDEAYVRLDSRGNASVRRVNTQQTVCEFRVSGAAQRRVMGCVNRLHALMCAGGIMRVWEVERGEYLYSIRERVGEVDAIVADDRHVAVASASSTAQSIIHLWDFGAL
binding [9]: binds
binding [10]: binds
